B1: IL27M22, mEB13-mp28 hIgG1 Fc (Fc fusion)
chain: YTETALVALSQPRVQCHASRYPVAVDCSWTPLQAPNSTRSTSFIATYRLGVATQQQSQPCLQRSPQASRCTIPDVHLFSTVPYMLNVTAVHPGGASSSLLAFVAERIIKPDPPEGVRLRTAGQRLQVLWHPPASWPFPDIFSLKYRLRYRRRGASHFRQVGPIEATTFTLRNSKPHAKYCIQVSAQDLTDYGKPSDWSLPGQVESAPHKPGGGGSGGGGSGGGGSFPTDPLSLQELRREFTVSLYLARKLLSEVQGYVHSFAESRLPGVNLDLLPLGYHLPNVSLTFQAWHHLSDSERLCFLATTLRPFPAMLGGLGTQGTWTSSEREQLWAMRLDLRDLHRHLRFQVLAAGFKCSKEEEDKEEEEEEEEEEKKLPLGALGGPNQVSSQVSWPQLLYTYQLLHSLELVLSRAVRDLLLLSLPRRPGSAWDS[here human IgG1 Fc without letters]
B2: IL27M20, EBI3-p28-HSA-mmh (other)
chain: YTETALVALSQPRVQCHASRYPVAVDCSWTPLQAPNSTRSTSFIATYRLGVATQQQSQPCLQRSPQASRCTIPDVHLFSTVPYMLNVTAVHPGGASSSLLAFVAERIIKPDPPEGVRLRTAGQRLQVLWHPPASWPFPDIFSLKYRLRYRRRGASHFRQVGPIEATTFTLRNSKPHAKYCIQVSAQDLTDYGKPSDWSLPGQVESAPHKPGGGGSGGGGSGGGGSGGGGSFPTDPLSLQELRREFTVSLYLARKLLSEVQGYVHSFAESRLPGVNLDLLPLGYHLPNVSLTFQAWHHLSDSERLCFLATTLRPFPAMLGGLGTQGTWTSSEREQLWAMRLDLRDLHRHLRFQVLAAGFKCSKEEEDKEEEEEEEEEEKKLPLGALGGPNQVSSQVSWPQLLYTYQLLHSLELVLSRAVRDLLLLSLPRRPGSAWDSGGGGSGGGGSGGGGS[here about 600 residues without letters]EQKLISEEDLGGEQKLISEEDLHHHHHH

Target: T1, murine IL27 receptor (IL27Ra and gp130) on mouse cells (MC9/STAT3-Luc reporter cells; splenic CD4+ T cells) (mouse, UniProt O70394 25-623; Q00560 23-917)
T1 sequence (looked up) 1: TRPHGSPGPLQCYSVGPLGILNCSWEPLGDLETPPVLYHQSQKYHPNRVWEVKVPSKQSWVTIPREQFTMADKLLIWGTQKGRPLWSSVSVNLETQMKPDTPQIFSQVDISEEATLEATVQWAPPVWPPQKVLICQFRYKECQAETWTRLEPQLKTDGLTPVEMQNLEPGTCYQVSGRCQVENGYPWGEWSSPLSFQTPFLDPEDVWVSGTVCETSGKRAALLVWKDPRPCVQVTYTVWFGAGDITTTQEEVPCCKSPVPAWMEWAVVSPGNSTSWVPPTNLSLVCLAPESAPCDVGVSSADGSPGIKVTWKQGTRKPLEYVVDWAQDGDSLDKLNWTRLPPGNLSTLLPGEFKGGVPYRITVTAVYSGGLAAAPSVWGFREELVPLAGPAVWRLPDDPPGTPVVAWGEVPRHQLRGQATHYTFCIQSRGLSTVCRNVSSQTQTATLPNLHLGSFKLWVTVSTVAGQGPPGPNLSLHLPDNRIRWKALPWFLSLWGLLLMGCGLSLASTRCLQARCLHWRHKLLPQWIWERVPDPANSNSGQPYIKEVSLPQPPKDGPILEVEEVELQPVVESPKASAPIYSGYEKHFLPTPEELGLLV
T1 sequence (looked up) 2: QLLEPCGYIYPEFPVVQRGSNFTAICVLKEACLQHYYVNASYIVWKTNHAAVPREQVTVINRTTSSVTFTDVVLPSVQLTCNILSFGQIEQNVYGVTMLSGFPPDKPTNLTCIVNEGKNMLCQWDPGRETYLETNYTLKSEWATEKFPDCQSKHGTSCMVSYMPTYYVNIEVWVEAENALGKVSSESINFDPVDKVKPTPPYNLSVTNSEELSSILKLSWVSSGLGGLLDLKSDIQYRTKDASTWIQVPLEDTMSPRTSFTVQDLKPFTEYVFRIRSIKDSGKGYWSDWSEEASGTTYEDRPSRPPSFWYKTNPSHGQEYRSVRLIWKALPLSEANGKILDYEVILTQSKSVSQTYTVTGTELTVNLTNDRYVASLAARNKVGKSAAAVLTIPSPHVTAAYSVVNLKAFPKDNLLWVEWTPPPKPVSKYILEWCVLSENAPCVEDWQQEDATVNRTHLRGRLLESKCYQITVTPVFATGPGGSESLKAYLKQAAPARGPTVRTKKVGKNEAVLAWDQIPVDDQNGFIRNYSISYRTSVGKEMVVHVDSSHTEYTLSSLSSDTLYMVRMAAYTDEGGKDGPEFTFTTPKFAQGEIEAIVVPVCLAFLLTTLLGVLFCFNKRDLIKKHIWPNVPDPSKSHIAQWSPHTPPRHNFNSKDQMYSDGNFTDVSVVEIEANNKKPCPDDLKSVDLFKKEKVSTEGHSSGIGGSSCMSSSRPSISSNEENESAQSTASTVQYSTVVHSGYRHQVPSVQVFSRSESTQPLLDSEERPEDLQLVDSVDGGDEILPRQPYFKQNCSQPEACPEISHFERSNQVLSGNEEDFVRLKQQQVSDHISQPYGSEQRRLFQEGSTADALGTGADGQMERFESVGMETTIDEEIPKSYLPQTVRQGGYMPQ
Assay: cell-based or functional assay

EC50 (M), STAT3 luciferase, MC9 cells [M]	FOLD INDUCTION, STAT3 luciferase, MC9 cells [fold]	Binder
6.08e-10	3.95	B1
2.87e-12	2.79	B2
